Test results reported in patent US20240182945A1, “PRODUCTS FOR REGULATION OF EUKARYOTIC AND MICROBIAL CELLS GROWTH” (priority 2021, published 2024).

Tested on: bacteria of the swab from the tongue of the patient with Alzheimer's disease
Assay: Number of bacterial species isolated from tongue swab on media with excipients
Details: agent added

C[C@H]1COc2c(N3CCN(C)CC3)c(F)cc3c(=O)c(C(=O)O)cn1c23 [Levofloxacin]
Unique bacterial species identified with proposed method (number) (COL (Columbia agar), ER +): 0
Unique bacterial species identified with proposed method (number) (COL (Columbia agar), ER −): 0
Number of different bacterial species isolated (COL (Columbia agar), erythrocytes added (ER +)): 0
Number of different bacterial species isolated (COL (Columbia agar), erythrocytes not added (ER −)): 0
Unique bacterial species identified with proposed method (number) (COL + PEP medium, ER +): 2
Unique bacterial species identified with proposed method (number) (COL + PEP medium, ER −): 1
Number of different bacterial species isolated (COL + PEP medium, erythrocytes added (ER +)): 4
Number of different bacterial species isolated (COL + PEP medium, erythrocytes not added (ER −)): 2
Unique bacterial species identified with proposed method (number) (LB agar, ER +): 1
Unique bacterial species identified with proposed method (number) (LB agar, ER −): 0
Number of different bacterial species isolated (LB agar, erythrocytes added (ER +)): 2
Number of different bacterial species isolated (LB agar, erythrocytes not added (ER −)): 0
